B1: TFAP4, Q01664 (protein)
chain: MEYFMVPTQKVPSLQHFRKTEKEVIGGLCSLANIPLTPETQRDQERRIRREIANSNERRRMQSINAGFQSLKTLIPHTDGEKLSKAAILQQTAEYIFSLEQEKTRLLQQNTQLKRFIQELSGSSPKRRRAEDKDEGIGSPDIWEDEKAEDLRREMIELRQQLDKERSVRMMLEEQVRSLEAHMYPEKLKVIAQQVQLQQQQEQVRLLHQEKLEREQQQLRTQLLPPPAPTHHPTVIVPAPPPPPSHHINVVTMGPSSVINSVSTSRQNLDTIVQAIQHIEGTQEKQELEEEQRRAVIVKPVRSCPEAPTSDTASDSEASDSDAMDQSREEPSGDGELP
B2: SOHLH2, Q9NX45 (protein)
chain: MASSIICQEHCQISGQAKIDILLVGDVTVGYLADTVQKLFANIAEVTITISDTKEAAALLDDCIFNMVLLKVPSSLSAEELEAIKLIRFGKKKNTHSLFVFIIPENFKGCISGHGMDIALTEPLTMEKMSNVVKYWTTCPSNTVKTENATGPEELGLPLQRSYSEHLGYFPTDLFACSESLRNGNGLELNASLSEFEKNKKISLLHSSKEKLRRERIKYCCEQLRTLLPYVKGRKNDAASVLEATVDYVKYIREKISPAVMAQITEALQSNMRFCKKQQTPIELSLPGTVMAQRENSVMSTYSPERGLQFLTNTCWNGCSTPDAESSLDEAVRVPSSSASENAIGDPYKTHISSAALSLNSLHTVRYYSKVTPSYDATAVTNQNISIHLPSAMPPVSKLLPRHCTSGLGQTCTTHPNCLQQFWAY
B3: PRKCI, P41743 (protein)
chain: MPTQRDSSTMSHTVAGGGSGDHSHQVRVKAYYRGDIMITHFEPSISFEGLCNEVRDMCSFDNEQLFTMKWIDEEGDPCTVSSQLELEEAFRLYELNKDSELLIHVFPCVPERPGMPCPGEDKSIYRRGARRWRKLYCANGHTFQAKRFNRRAHCAICTDRIWGLGRQGYKCINCKLLVHKKCHKLVTIECGRHSLPQEPVMPMDQSSMHSDHAQTVIPYNPSSHESLDQVGEEKEAMNTRESGKASSSLGLQDFDLLRVIGRGSYAKVLLVRLKKTDRIYAMKVVKKELVNDDEDIDWVQTEKHVFEQASNHPFLVGLHSCFQTESRLFFVIEYVNGGDLMFHMQRQRKLPEEHARFYSAEISLALNYLHERGIIYRDLKLDNVLLDSEGHIKLTDYGMCKEGLRPGDTTSTFCGTPNYIAPEILRGEDYGFSVDWWALGVLMFEMMAGRSPFDIVGSSDNPDQNTEDYLFQVILEKQIRIPRSLSVKAASVLKSFLNKDPKERLGCHPQTGFADIQGHPFFRNVDWDMMEQKQVVPPFKPNISGEFGLDNFDSQFTNEPVQLTPDDDDIVRKIDQSEFEGFEYINPLLMSAEECV
B4: HAND2, P61296 (protein)
chain: MSLVGGFPHHPVVHHEGYPFAAAAAAAAAAAASRCSHEENPYFHGWLIGHPEMSPPDYSMALSYSPEYASGAAGLDHSHYGGVPPGAGPPGLGGPRPVKRRGTANRKERRRTQSINSAFAELRECIPNVPADTKLSKIKTLRLATSYIAYLMDLLAKDDQNGEAEAFKAEIKKTDVKEEKRKKELNEILKSTVSSNDKKTKGRTGWPQHVWALELKQ
B5: FOXE1, O00358 (protein)
chain: MTAESGPPPPQPEVLATVKEERGETAAGAGVPGEATGRGAGGRRRKRPLQRGKPPYSYIALIAMAIAHAPERRLTLGGIYKFITERFPFYRDNPKKWQNSIRHNLTLNDCFLKIPREAGRPGKGNYWALDPNAEDMFESGSFLRRRKRFKRSDLSTYPAYMHDAAAAAAAAAAAAAAAAIFPGAVPAARPPYPGAVYAGYAPPSLAAPPPVYYPAASPGPCRVFGLVPERPLSPELGPAPSGPGGSCAFASAGAPATTTGYQPAGCTGARPANPSAYAAAYAGPDGAYPQGAGSAIFAAAGRLAGPASPPAGGSSGGVETTVDFYGRTSPGQFGALGACYNPGGQLGGASAGAYHARHAAAYPGGIDRFVSAM
B6: ZXDC, Q2QGD7 (protein)
chain: MDLPALLPAPTARGGQHGGGPGPLRRAPAPLGASPARRRLLLVRGPEDGGPGARPGEASGPSPPPAEDDSDGDSFLVLLEVPHGGAAAEAAGSQEAEPGSRVNLASRPEQGPSGPAAPPGPGVAPAGAVTISSQDLLVRLDRGVLALSAPPGPATAGAAAPRRAPQASGPSTPGYRCPEPQCALAFAKKHQLKVHLLTHGGGQGRRPFKCPLEGCGWAFTTSYKLKRHLQSHDKLRPFGCPVGGCGKKFTTVYNLKAHMKGHEQESLFKCEVCAERFPTHAKLSSHQRSHFEPERPYKCDFPGCEKTFITVSALFSHNRAHFREQELFSCSFPGCSKQYDKACRLKIHLRSHTGERPFICDSDSCGWTFTSMSKLLRHRRKHDDDRRFTCPVEGCGKSFTRAEHLKGHSITHLGTKPFECPVEGCCARFSARSSLYIHSKKHVQDVGAPKSRCPVSTCNRLFTSKHSMKAHMVRQHSRRQDLLPQLEAPSSLTPSSELSSPGQSELTNMDLAALFSDTPANASGSAGGSDEALNSGILTIDVTSVSSSLGGNLPANNSSLGPMEPLVLVAHSDIPPSLDSPLVLGTAATVLQQGSFSVDDVQTVSAGALGCLVALPMKNLSDDPLALTSNSNLAAHITTPTSSSTPRENASVPELLAPIKVEPDSPSRPGAVGQQEGSHGLPQSTLPSPAEQHGAQDTELSAGTGNFYLESGGSARTDYRAIQLAKEKKQRGAGSNAGASQSTQRKIKEGKMSPPHFHASQNSWLCGSLVVPSGGRPGPAPAAGVQCGAQGVQVQLVQDDPSGEGVLPSARGPATFLPFLTVDLPVYVLQEVLPSSGGPAGPEATQFPGSTINLQDLQ
B7: GTF2H3, Q13889 (protein)
chain: MVSDEDELNLLVIVVDANPIWWGKQALKESQFTLSKCIDAVMVLGNSHLFMNRSNKLAVIASHIQESRFLYPGKNGRLGDFFGDPGNPPEFNPSGSKDGKYELLTSANEVIVEEIKDLMTKSDIKGQHTETLLAGSLAKALCYIHRMNKEVKDNQEMKSRILVIKAAEDSALQYMNFMNVIFAAQKQNILIDACVLDSDSGLLQQACDITGGLYLKVPQMPSLLQYLLWVFLPDQDQRSQLILPPPVHVDYRAACFCHRNLIEIGYVCSVCLSIFCNFSPICTTCETAFKISLPPVLKAKKKKLKVSA

We go through 7 molecules from the supplement of paper PMC12423691.

The list shows a part of the results. Binding of human transcription factors and regulators to the viral nucleoprotein by AlphaScreen, crude cell-free proteins, amounts not normalised, one pass. Fold of the Venus control; higher = more signal. No active / inactive call. Single-pass screen; sequences are the whole Swiss-Prot entries looked up by name.

The assay concerns the target nucleoprotein N of Crimean-Congo hemorrhagic fever virus. The assay can be described thus: AlphaScreen luminescence signal relative to Venus negative control (fold); higher = stronger binding to CCHFV N. The protocol: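 AlphaScreen binding of cell-free made, FLAG-GST-tagged human transcription factors and regulators (crude translation products) to biotinylated N protein; signal as fold of the FLAG-GST-Venus control. One pass.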
For orientation: Bead proximity is the source of the signal in Alpha formats.
Molecule B1 had an AlphaScreen luminescence signal of 2.51. To B2 belongs 12; to B3, 2.84. With B4, the AlphaScreen luminescence signal is 2.65. B5 gave an AlphaScreen luminescence signal of 1.67. B6 yielded an AlphaScreen luminescence signal of 0.837. To B7 belongs 2.37.
